Data from patent US5446130, “Parathyroid hormone antagonists” (Mitsubishi Kasei Corporation, dated 1995).

Molecular target: T1, hPTH (1-34) (human, UniProt P01270)
T1 peptide: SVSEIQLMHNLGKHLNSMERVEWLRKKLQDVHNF
Assay: cell-based or functional assay

IC50 Ratio: 50% inhibition of cAMP output, MC3T3-E1 mouse osteoblasts: 0.087 ratio of IC50 to that of [Tyr34]-hPTH(3-34)-NH2
B1: hPTHrP ([…])-NH2 (peptide)
peptide: not shown
modifications: C-terminal amide (NH2)
